Out of some 45,000 compounds screened, about 200 (0.44%) were called active. Another 7% or so got no clear call; they are omitted. The call rests on the fitted dose curve; in most records, active means well fitted activation curve with a large enough effect; inconclusive means small, poorly fitted or top-dose-only effect; inactive means no such curve, though single readings can be large or run the other way. Some of the results follow.

The nature of this assay: qHTS of TDP-43 Inhibitors: NCGC Sytravon Library Screen. Further: 0% is about no effect; nearly all actives have a fitted effect of over 55% in size. The following applies: yeast TDP-43 toxicity rescue, BacTiter-Glo growth, 24 h; at 46.1 µM (top of the series). Summed up: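 TDP-43-expressing yeast, pregrown in raffinose, seeded at OD600 0.02 in galactose medium with compound for 24 hr at 30 deg C. Growth read by BacTiter-Glo luminescence, so rescue of toxicity appears as activation.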
In general terms: qHTS replaces the single test concentration by a dilution series.
For the compound `CC(OC(=O)c1cn(C)c2ccccc12)C(=O)N(C)c1ccccc1` (configuration not stated), the growth rescue (activation) was inactive: 29.8%.

Turning to `COc1ccccc1CN1CCN(Cc2ccc(Cl)cc2)CC1`, the growth rescue (activation) is inactive: -7.92%.

As for `C=CCn1c(O)c(/C(C)=N/NC(=S)Nc2ccccc2)c(=O)[nH]c1=O`, the growth rescue (activation) is inactive: 4.47%.

Consider `CCn1c(O)c(/C=N/NC(=O)c2ccccc2)c(=O)n(CC)c1=S`, for which the growth rescue (activation) was inactive: -10.4%.

Regarding `N#CCCn1cc(C(=O)Nc2ccc(F)cc2)c(-c2ccc([N+](=O)[O-])cc2)n1`, the growth rescue (activation) was inactive: 0.0769%.

Turning to `Clc1ccccc1NC1=NCCCS1`, the growth rescue (activation) was inactive: 2.04%.

`COc1ccc(N=Cc2c(O)n(-c3ccc(C)cc3)c(=O)[nH]c2=O)cc1`: the growth rescue (activation) is inactive: -4.59%.

Consider `O=c1c2ccccc2nc(/C=C/c2ccccc2F)n1-c1cccc(O)c1`, for which the growth rescue (activation) was inactive: 2.96%.

Take `COc1ccc(-n2c(-c3ccccc3[N+](=O)[O-])nc3ccccc3c2=O)cc1`: the growth rescue (activation) is inactive: -2.84%.

As to `C[C@]12CC[C@@H](O)CC1=CCC1C2CC[C@]2(C)C(=O)[C@H](F)CC12` (some centres not stated), the growth rescue (activation) is inactive: -12.2%.

For the compound `C/C(=N\N(C)c1ccccc1)c1c(O)[nH]c(=O)[nH]c1=O`, the growth rescue (activation) was inactive: -3.66%.

Consider `C[n+]1c2ccccc2nc2ccc(NCCO)cc21`, for which the growth rescue (activation) was inactive: -32.8%.

As to `Cc1cccc(OP(=O)(Oc2cccc(C)c2)OC(c2ccccc2)C(F)(F)F)c1` (configuration not stated), the growth rescue (activation) is inactive: -6.78%.

As for `C=CCn1c(O)c(/C=N/N2CCCCC2)c(=O)[nH]c1=O`, the growth rescue (activation) is inactive: 1.11%.

In the case of `CC1CN(c2ccc([N+](=O)[O-])c(N3CCCCC3)c2)CCN1` (configuration not stated), the growth rescue (activation) was inactive: 11.1%.

`Cc1cc(/C=C2\C(=O)NC(=O)N(Cc3ccco3)C2=O)c(C)n1-c1ccc(O)cc1`: the growth rescue (activation) is inactive: 3.28%.

As for `CCOCCc1c(O)[nH]c(=S)[nH]c1=O`, the growth rescue (activation) was inactive: 3.18%.

With `Clc1ccc(OCC#CCN2CCCC2)cc1`, the growth rescue (activation) is inactive: 2%.

On to `O=[N+]([O-])c1ccc2c(c1)C(c1ccccc1)=NCCN2`, for which the growth rescue (activation) is inactive: 10.6%.

For the compound `CCc1ccc(N2C(=O)NC(=O)/C(=C/c3cccn3CCOc3ccc(C)cc3)C2=O)cc1`, the growth rescue (activation) was inactive: 9.66%.

Turning to `CN(C)c1ccc(/C=C2\C(=O)NC(=O)N(Cc3ccc(F)cc3)C2=O)cc1`, the growth rescue (activation) was inactive: 2.38%.

Take `CCOc1ccc(Cl)cc1CNCCc1ccc(F)cc1`: the growth rescue (activation) is inactive: 5.24%.

For the compound `CCN1CCN(c2nc([N+](=O)[O-])nn2C)CC1`, the growth rescue (activation) is inactive: -4.58%.

Regarding `Cc1ccc(-n2c(-c3ccc([N+](=O)[O-])cc3)nc3ccccc3c2=O)cc1`, the growth rescue (activation) is inactive: 28.7%.

`O=C(c1ccc(Cl)cc1)C1CCCN(Cc2cccc3cccnc23)C1` (configuration not stated): the growth rescue (activation) is inactive: 9.23%.

For `CN1CCN2c3ccccc3CC3(C(=O)N(C)C(=O)N(C)C3=O)C2C1` (configuration not stated), the growth rescue (activation) is inactive: -0.703%.

Take `CCc1ccc(N2C(=O)NC(=O)/C(=C\c3cc(C)n(-c4cc(C(=O)O)cc(C(=O)O)c4)c3C)C2=O)cc1`: the growth rescue (activation) is inactive: 3.91%.

Take `O=C(N/N=C\C1C(=O)NC(=S)N(c2ccccc2)C1=O)c1ccc(O)cc1` (configuration not stated): the growth rescue (activation) is inactive: 1.54%.

`COc1ccc(Cc2c(O)[nH]c(=S)[nH]c2=O)cc1`: the growth rescue (activation) is inactive: -18.9%.

In the case of `C[C@]12CCC(=O)C=C1C=CC1C2CC[C@]2(C)C(=O)CCC12` (some centres not stated), the growth rescue (activation) is inactive: 23.8%.

Take `CC(Cc1ccsc1)NCc1cn[nH]c1-c1ccc(F)cc1F` (configuration not stated): the growth rescue (activation) was inactive: 3.67%.

With `Cc1cc(C=C2C(=O)N(C)C(=S)N(C)C2=O)c(C)n1C1CCCCC1`, the growth rescue (activation) was inactive: -6.99%.

For `CC(=O)Nc1ccccc1C(=O)OCC(=O)Nc1ncccn1`, the growth rescue (activation) is inactive: 8.23%.

For the compound `CCOC(=O)c1c(NS(=O)(=O)c2ccccc2)n(CCCOC)c2nc3ccccc3nc12`, the growth rescue (activation) was inactive: 3.2%.

As to `CCC1(C)OC(c2ccccc2)=C/C(=C/C=C2C(=O)NC(=O)NC2=O)O1` (configuration not stated), the growth rescue (activation) was inactive: -7.99%.

For `CCN(CCO)c1ccc(N=Cc2c(O)n(C)c(=S)[nH]c2=O)cc1`, the growth rescue (activation) was inactive: -3.35%.

`CCn1c(=N)n(Cc2ccccc2F)c2ccccc21`: the growth rescue (activation) was inactive: -1.4%.

Regarding `COc1cc(OC)c(OC)cc1CNCCc1ccc(F)cc1`, the growth rescue (activation) is inactive: -3.63%.

With `Cn1cc(/C=C2\C(=O)NC(=O)N(c3ccccc3)C2=O)c2ccccc21`, the growth rescue (activation) was inactive: -22.7%.

For `COc1ccc(-n2c(Cc3cccc([N+](=O)[O-])c3)nc3ccccc3c2=O)cc1`, the growth rescue (activation) was inactive: -21.2%.

Consider `O=c1[nH]c(O)c(/C=C2\C=Nc3ccc(OCc4ccccc4)cc32)c(=O)[nH]1`, for which the growth rescue (activation) was inactive: 8.7%.

For the compound `O=C(COC(=O)Cc1ccccc1)Nc1cc(S(=O)(=O)N2CCOCC2)ccc1N1CCCC1`, the growth rescue (activation) was inactive: 12.5%.

`COc1cc(C(=O)OC2C[C@H]3CC[C@@H](C2)N3C)ccc1O` (some centres not stated): the growth rescue (activation) was inactive: 4.94%.

Regarding `CCN1/C(=C\C=C\C2=[N+](CC)c3ccccc3C2(C)C)C(C)(C)c2ccccc21`, the growth rescue (activation) is inactive: -93%.

For `O=C1NC(=O)C(CCc2ccncc2)(CCc2ccncc2)C(=O)N1CCc1ccccc1`, the growth rescue (activation) is inactive: 5.55%.

Regarding `COc1ccc(C(=O)C2CCCN(Cc3cccc(C)n3)C2)c(OC)c1` (configuration not stated), the growth rescue (activation) is inactive: 3.02%.

For the compound `CN(C)CCN=Cc1c(O)n(Cc2ccc3c(c2)OCO3)c(=S)[nH]c1=O`, the growth rescue (activation) is inactive: 14.8%.

`C[C@]12CCC(=O)C=C1CCC1C2CC[C@@]2(C)C1CC[C@@H]2O` (some centres not stated): the growth rescue (activation) was inactive: 21.5%.

As for `O=C(O)Cn1cc(/C=C2\C(=O)NC(=O)N(c3ccc(Br)cc3)C2=O)c2ccccc21`, the growth rescue (activation) was inactive: 6.84%.

On to `CN1/C(=C\C=C2C(=O)NC(=S)NC2=O)C(C)(C)c2ccccc21`, for which the growth rescue (activation) was inactive: -12.6%.

Take `O=C(N/N=C/c1c(O)n(CCC2=CCCCC2)c(=S)[nH]c1=O)c1ccccc1`: the growth rescue (activation) was inactive: 7.67%.

For `O=P(Nc1cccnc1)(Oc1ccccc1)Oc1ccccc1`, the growth rescue (activation) is inactive: -0.129%.

Regarding `COc1ccccc1N1CCN(Cc2cc(C)c(C)cc2O)CC1`, the growth rescue (activation) was inactive: 13.7%.

With `CSc1ncc(/C=C2/C(=O)NC(=O)N(c3ccc(C)cc3)C2=O)cn1`, the growth rescue (activation) is inactive: 3.69%.

Consider `COc1ccc(-n2c(O)c(/C=C3\C=Nc4ccc(Br)cc43)c(=O)[nH]c2=O)cc1`, for which the growth rescue (activation) is inactive: -8.23%.

Take `O=C(Nc1ccccc1)OC1CN=C(N[N+](=O)[O-])NC1` (configuration not stated): the growth rescue (activation) is inactive: -1.8%.

As to `O=c1c2ccccc2ncn1-c1ccc([N+](=O)[O-])c(C(F)(F)F)c1`, the growth rescue (activation) is inactive: -14.4%.

The values above are taken from PubChem BioAssay AID1347073 (National Center for Advancing Translational Sciences (NCATS), 2019).
